Results: article PMC10616113, “Novel 3-phenylquinazolin-2,4(1H,3H)-diones as dual VEGFR-2/c-Met-TK inhibitors: design, synthesis, and biological evaluation” (Scientific Reports, 2023)

How the values were obtained:
VEGFR-2 = VEGFR-2 (Homo sapiens, UniProt P35968); test: In vitro enzyme inhibition of VEGFR-2 TK
c-Met = c-Met (Homo sapiens, UniProt P08581); test: In vitro enzyme inhibition of c-Met TK
WI38 normal cell line = test: MTT cytotoxicity against WI38 normal cells; settings: Homo sapiens, WI-38
HCT-116 cells = test: Apoptosis induction, Annexin V-FITC/PI staining; format: cell-based; settings: 24 h
From the text: There was an increase in the number of both early and late apoptotic cells of both tested compounds 3c and 3e. […] . Totally, both designed compounds 3c and 3e were able to induce remarkable apoptosis.

[1] = system: HCT-116 colon cancer cell line; test: Cell cycle analysis by flow cytometry; settings: HCT-116 cells treated at IC50 concentration
[2] = system: HCT-116 colorectal cancer cell line; test: MTT cytotoxicity assay against HCT-116; format: cell-based; settings: Homo sapiens, HCT116 cell line
Experimental: HCT-116 colorectal cancer cell line is characterized by overexpression of both VEGFR-2 and c-Met TKs. Consequently, we selected it to study the cytotoxic activity of the target derivatives. We tested the effect of several concentrations of the designed derivatives on HCT-116 cells by using MTT assay.
Cell Line cells were obtained from American Type Culture Collection , cells were cultured using DMEM (Invitrogen/Life Technologies) supplemented with 10% FBS (Hyclone), 10 ug/ml of insulin (Sigma), and 1% penicillin-streptomycin. All the other chemicals and reagents were from Sigma, or Invitrogen. Plate cells (cells density 1.2 – 1.8 × 10,000 cells/well) in a volume of 100µl complete growth medium + 100 μl of the tested compound per well in a 96-well plate for 24 hours before the MTT assay .
8-After treatment of cells with the serial concentrations of the compound to be tested incubation is carried out for 48 h at 37 °C ,then the plates are to be examined under the inverted microscope and proceed for the MTT assay
The MTT method of monitoring in vitro cytotoxicity is
well suited for use with multiwell plates. For best results, cells in the log phase of growth should be employed and final cell number should not exceed 10^6 cells/cm2. Each test should include a blank containing complete medium without cells.
2. Reconstitute each vial of MTT [M-5655] to be used with 3 ml of medium or balanced salt solution without phenol red and serum. Add reconstituted MTT in an amount equal to 10% of the culture medium volume.
3. Return cultures to incubator for 2-4 hours depending on cell type and maximum cell density. (An incubation period of 2 hours is generally adequate but may be lengthened for low cell densities or cells with lower metabolic activity.) Incubation times should be consistent when making comparisons.
4. […]
6. Spectrophotometrically measure absorbance at a wavelength of 570 nm. Measure the background absorbance of multiwell plates at 690 nm and subtract from the 450 nm measurement. Tests performed in multiwell plates can be read using the appropriate type of plate

| IC50 (VEGFR-2) [nM] | IC50 (c-Met) [nM] | SMILES | IC50 (WI38 normal cell line) [nM] | %Apoptosis %Early (HCT-116 cells) [%] | %Apoptosis %Late (HCT-116 cells) [%] | %Apoptosis %Total (HCT-116 cells) [%] | %Necrosis (HCT-116 cells) [%] | %G0–G1 [1] [%] | %G2/M [1] [%] | %S [1] [%] | IC50 [2] [nM] |
| --- | --- | --- | --- | --- | --- | --- | --- | --- | --- | --- | --- |
| 263 ± 15 | 141 ± 8 | O=c1[nH]c2ccccc2c(=O)n1-c1ccc(-c2nc(=S)[nH]c(=S)[nH]2)cc1 [Compound 2b, 3-(4-(4,6-dithioxo-1,4,5,6-tetrahydro-1,3,5-triazin-2-yl)phenyl)quinazolin-2,4(1H,3H)-dione] | – | – | – | – | – | – | – | – | – |
| 138 ± 8 | 74 ± 4 | O=C(O)c1ccc(NC(=S)NC(=O)c2ccc(-n3c(=O)[nH]c4ccccc4c3=O)cc2)cc1 [Compound 3c, 4-(3-(4-(2,4-dioxo-1,4-dihydroquinazolin-3(2H)-yl)benzoyl)thioureido)benzoic acid] | 23800 ± 1410 | 9.52 | 19.28 | 28.8 | 4.89 | 55.41 | 11.13 | 33.46 | – |
| 51 ± 3 | 442 ± 26 | CCOC(=O)c1ccc(NC(=S)NC(=O)c2ccc(-n3c(=O)[nH]c4ccccc4c3=O)cc2)cc1 [Compound 3d, Ethyl4-(3-(4-(2,4-dioxo-1,4-dihydroquinazolin-3(2H)-yl)benzoyl)thioureido)benzoate] | – | – | – | – | – | – | – | – | 2240 ± 120 |
| 83 ± 5 | 48 ± 3 | O=C(NC(=S)Nc1ccc(Cl)cc1)c1ccc(-n2c(=O)[nH]c3ccccc3c2=O)cc1 [Compound 3e, N-((4-chlorophenyl)carbamothioyl)-4-(2,4-dioxo-1,4-dihydroquinazolin-3(2H)-yl) benzamide] | 11600 ± 690 | 21.22 | – | 35.39 | 1.79 | 44.13 | 26.51 | 29.36 | – |
| – | – | O=C(NC(=S)Nc1nnc(S)s1)c1ccc(-n2c(=O)[nH]c3ccccc3c2=O)cc1 [Compound 4a, 4-(2,4-dioxo-1,4-dihydroquinazolin-3(2H)-yl)-N-((5-mercapto-1,3,4-thiadiazol-2-yl)carbamothioyl)benzamide] | – | – | – | – | – | – | – | – | 19900 ± 1050 |
| – | – | O=C(NC(=S)Nc1nc2ccccc2s1)c1ccc(-n2c(=O)[nH]c3ccccc3c2=O)cc1 [Compound 4b, N-(benzo[d]thiazol-2-ylcarbamothioyl)-4-(2,4-dioxo-1,4-dihydroquinazolin-3(2H)-yl)benzamide] | – | – | – | – | – | – | – | – | 20300 ± 1070 |
